# According to the supplement of paper PMC4166925:
# ± gives the standard deviation of the averaged measurements. Over roughly 33,000 sequences, “E-score (dimensionless, -0.5 to 0.5)” has its median near -0.046; the highest 2% begin near 0.36. The list shows a part of the results.
# Test system: T1, SpTbr T-box DNA-binding domain (GST fusion)
# T1 sequence: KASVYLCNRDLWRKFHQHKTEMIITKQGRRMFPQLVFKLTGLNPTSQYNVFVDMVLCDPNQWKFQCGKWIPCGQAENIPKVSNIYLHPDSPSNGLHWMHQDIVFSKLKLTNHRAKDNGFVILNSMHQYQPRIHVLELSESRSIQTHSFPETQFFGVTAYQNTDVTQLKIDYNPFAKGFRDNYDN
# Experiment: PBM E-score of 8-mer (E-score (dimensionless, -0.5 to 0.5)); Tbr is Tbrain of the sea star Patiria miniata (Pm) or the sea urchin Strongylocentrotus purpuratus (Sp); higher = stronger binding preference; most listed sequences are background and not binding sites
# Conditions: the construct has about 5 more residues each side
# How it was run: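 Universal Agilent oligonucleotide arrays, made double-stranded by primer extension, were incubated with 200 nM GST-fused Tbr T-box DNA-binding domain in PBS (pH 7.5). The protein was expressed in BL21 E. coli at 20 °C and purified by glutathione affinity chromatography. After scanning and quantification, the Universal PBM Analysis Suite assigned an enrichment E-score to each ungapped 8-mer, averaged over duplicate arrays.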
row,Sequence,PBM E-score of 8-mer
1,ATATGTTC,-0.00847 ± 0.0029
2,TTACAAAA,-0.255 ± 0.0077
3,ATAATCAC,0.111 ± 0.074
4,GGCCCAGA,-0.2892 ± 0.0023
5,AAGCCGAT,-0.0775 ± 0.016
6,AGAAGATC,-0.0549 ± 0.0067
7,CCCCGGGA,-0.0544 ± 0.0041
8,ACTACCCA,-0.0986 ± 0.043
9,CCTGCGGC,-0.265 ± 0.085
10,AAACCACC,-0.108 ± 0.004
11,CCGAGCTC,-0.276 ± 0.049
12,AGCAACAT,-0.00653 ± 0.059
13,CCAGTGCA,-0.196 ± 0.081
14,AGGTCATA,-0.0955 ± 0.14
15,GGACTAAC,-0.113 ± 0.02
16,CAGTCGAG,-0.0184 ± 0.03
17,ACATAAAT,0.0269 ± 0.015
18,AAAGAATG,-0.101 ± 0.13
19,GACCTGGA,-0.126 ± 0.0018
20,AACCTCCT,0.00779 ± 0.035
21,GCCCCACC,-0.0262 ± 0.0077
22,AGTGGCCC,-0.195 ± 0.041
23,CAATCCGA,-0.103 ± 0.05
24,AGCCTAAC,0.0322 ± 0.051
25,ACCAAAAC,-0.0482 ± 0.03

row,Sequence,PBM E-score of 8-mer
1,ACCGGGAG,0.0271 ± 0.021
2,ATGTCTCC,-0.104 ± 0.016
3,TAACACTA,0.373 ± 0.042
4,GGACCGGA,-0.0403 ± 0.038
5,AGGACCGG,-0.327 ± 0.032
6,GAATATCA,0.00497 ± 0.031
7,CGTGAAGA,0.277 ± 0.024
8,CTGGACGC,-0.142 ± 0.0062
9,GGCAGCCA,0.0468 ± 0.083
10,CCTTCTTA,0.0334 ± 0.047
11,CAGATCCC,-0.0125 ± 0.036
12,CACAACCG,0.0996 ± 0.024
13,ATAAGATC,-0.294 ± 0.079
14,ATGTGGAC,-0.0585 ± 0.08
15,CTACTTGA,0.0916 ± 0.062
16,GCTCTAGA,-0.219 ± 0.035
17,ATGGACGA,-0.115 ± 0.045
18,TATTCCAA,-0.156 ± 0.056
19,TCGACCAA,-0.138 ± 0.024
20,GTGGCGTA,0.18 ± 0.042
21,GCGTAGAC,-0.0968 ± 0.063
22,CTGTTACC,0.1316 ± 0.001
23,ACCGGCGC,0.0708 ± 0.088
24,ATGTTGTG,0.19 ± 0.003
25,CATTCTTA,-0.21 ± 0.037

row,Sequence,PBM E-score of 8-mer
1,AGGAACTG,-0.0528 ± 0.009
2,ACCGCCAA,0.135 ± 0.045
3,CATGCTGG,-0.2357 ± 0.0008
4,CTCTGATC,-0.295 ± 0.028
5,ATCCAAGA,-0.146 ± 0.013
6,CGCCAAAA,0.0918 ± 0.039
7,ACTTCGAC,0.189 ± 0.025
8,GACGAGCA,-0.152 ± 0.046
9,ACGACAGA,-0.0974 ± 0.035
10,GTGGAATA,-0.0578 ± 0.064
11,ACTCCGCG,-0.0356 ± 0.025
12,TGAGATAA,0.0687 ± 0.09
13,AACTGCCA,0.143 ± 0.063
14,AGCGCATA,-0.00709 ± 0.06
15,CGCTCAGA,-0.0699 ± 0.017
16,CCTTCGGA,-0.0212 ± 0.0018
17,AGCATACG,0.00432 ± 0.048
18,ATCCCACG,0.0622 ± 0.046
19,CTTAGGTC,-0.167 ± 0.044
20,CCTATAGC,-0.123 ± 0.051
21,ACGTCATA,-0.0433 ± 0.0045
22,CTAATATC,-0.136 ± 0.0072
23,GCCAGATA,-0.113 ± 0.047
24,ACCATCAA,-0.0776 ± 0.011
25,CCGTCAGC,0.147 ± 0.028

row,Sequence,PBM E-score of 8-mer
1,CTCACTAA,0.125 ± 0.0095
2,CGACTTTC,0.157 ± 0.043
3,GCACAGTA,-0.0331 ± 0.042
4,CATGGGAC,-0.242 ± 0.075
5,GCAGGGCC,-0.226 ± 0.13
6,AACGGTCA,0.174 ± 0.042
7,AGTCCTTG,-0.0449 ± 0.074
8,GATGGCAA,0.06 ± 0.098
9,GGACGGAC,-0.176 ± 0.0025
10,TAAAGCTA,-0.171 ± 0.036
11,CGCCGCTA,0.0573 ± 0.02
12,AGTGCCCA,-0.116 ± 0.045
13,CGCAAGAA,0.0773 ± 0.0057
14,CCGAGACG,-0.121 ± 0.015
15,AACTGCCG,-0.0509 ± 0.053
16,GCAAGAAA,-0.0699 ± 0.06
17,ATCGTATC,-0.0937 ± 0.063
18,AATACCGG,-0.22 ± 0.049
19,ATCGTCAG,-0.000445 ± 0.032
20,CTACTGCA,-0.122 ± 0.0076
21,ATCACTGA,0.052 ± 0.049
22,GAAATATA,0.0158 ± 0.037
23,CAAGAGAG,-0.276 ± 0.07
24,CGCCTGTC,0.269 ± 0.037
25,CAGTCAGG,-0.283 ± 0.06

row,Sequence,PBM E-score of 8-mer
1,TAGATACA,-0.248 ± 0.045
2,AAGGCGTC,0.372 ± 0.035
3,AACCACAG,-0.022 ± 0.086
4,GTCGAGGA,0.0275 ± 0.01
5,ACCATGCC,-0.133 ± 0.026
6,CAGGCCGG,-0.118 ± 0.0059
7,ACGAAATA,0.0499 ± 0.031
8,GCCGTACC,-0.226 ± 0.038
9,CAGTCCGA,-0.0998 ± 0.02
10,CCGTGGAG,0.138 ± 0.0056
11,CCTGCCCA,-0.0627 ± 0.0049
12,CCCTCATC,-0.124 ± 0.061
13,CATGCGAA,0.0898 ± 0.0084
14,CTGTAAAG,0.141 ± 0.037
15,CCTCGCAG,0.128 ± 0.0015
16,ACGCCAAT,0.18 ± 0.011
17,ATTGTGAG,0.25 ± 0.035
18,AATAGACG,-0.153 ± 0.17
19,TCATAAAA,-0.209 ± 0.12
20,CCGCGGGC,-0.0365 ± 0.035
21,CTAAATGA,-0.105 ± 0.0079
22,AAGCCCTC,-0.287 ± 0.02
23,AAAGTGGT,0.00031 ± 0.043
24,ACACATAC,0.274 ± 0.0089
25,ATCAAGCC,-0.0713 ± 0.049

row,Sequence,PBM E-score of 8-mer
1,ATCTCTGA,-0.279 ± 0.01
2,CCTAACCG,-0.163 ± 0.039
3,CAAAACGG,-0.14 ± 0.012
4,GCTCTTCC,-0.168 ± 0.034
5,AAACCGAC,0.0439 ± 0.026
6,ACTTGAAG,0.027 ± 0.02
7,ATTCATCG,0.0084 ± 0.064
8,CGTGCCGC,0.0419 ± 0.045
9,ACACTGAG,0.125 ± 0.011
10,CAGAAACA,-0.0863 ± 0.084
11,GCAAACTA,-0.0056 ± 0.022
12,AATCCGAT,-0.194 ± 0.02
13,GGACTGAA,-0.107 ± 0.024
14,CCAGTGTC,0.0479 ± 0.008
15,AGCGGTTC,-0.0379 ± 0.0027
16,ACACCTAA,0.4637 ± 0.0015
17,ACGGAATG,-0.0727 ± 0.079
18,ACAGATGA,-0.0178 ± 0.031
19,AACACCCT,0.4 ± 0.0049
20,ACGGGGAA,-0.205 ± 0.012
21,AAACCAGA,-0.128 ± 0.093
22,AGCGATGC,-0.177 ± 0.048
23,GCGTGGCC,0.0846 ± 0.069
24,ATTGGTAA,-0.218 ± 0.016
25,AGAATCAT,-0.0611 ± 0.044

row,Sequence,PBM E-score of 8-mer
1,CTCGAGCA,-0.0926 ± 0.029
2,CGGCCTTA,-0.139 ± 0.025
3,ACAAGTGC,0.281 ± 0.015
4,CTTCATCC,-0.148 ± 0.0056
5,TTAATCAA,-0.0414 ± 0.051
6,GTACTATA,-0.112 ± 0.079
7,CCGAGACC,-0.241 ± 0.13
8,CAGGAAAC,-0.0905 ± 0.009
9,AACTTACG,-0.0812 ± 0.018
10,AAGTTGAC,0.187 ± 0.02
11,CATCACCC,0.258 ± 0.022
12,GGAGCAAC,0.0231 ± 0.049
13,ACAGCGCT,0.0204 ± 0.069
14,CAAAAGCA,-0.12 ± 0.073
15,GTGAAAAC,0.337 ± 0.056
16,AGCGAAGC,-0.0769 ± 0.11
17,GGGAAACC,-0.113 ± 0.069
18,AAATCCGG,-0.116 ± 0.074
19,GAACCGAA,-0.101 ± 0.0094
20,AGGTAAAT,-0.154 ± 0.027
21,CGGGGCTC,-0.0908 ± 0.071
22,GGTGATAA,0.37553 ± 0.00031
